Sequences and labels used below:
B1: Caulobacter ParB omega fusion; a variant is named by its letters at X, in order, B8GW30 (parent)
chain: MESVVVGEPGMSEGRRGLGRGLSALLGEVDAAPAQAPGEQLGGSREAPIEILQRNPDQPRRTFREEDLEDLSNSIREKGVLQPILVRPSPDTAGEYQIVAGERAWRAAQRAGLKTVPIMVRELDDLAVLEIGIIENVQRADLNVLEEALSYKVLMEKFERTQENIAQTIGKSXSHVANXMRLLXLPDEVQSYLVSGELTAXHARAIAAAADPVALAKQIIEGGLSVRETEALARKAPNLSAGKSKGGRPPRVKDTDTQALESDLSSVLGLDVSIDHRGSTGTLTITYATLEQLDDLCNRLTRGI

Over roughly 81,000 sequences, “one-hybrid fitness for binding parS DNA” has its median near -0.17; the highest 2% begin near 0.51. Some of the results follow. Where only a bound is given, the exact number is not on record here.

Variants of B1 are the subject of this experiment. Kind of experiment: one-hybrid fitness for binding parS DNA (scaled: cognate 1, non-cognate 0); higher = stronger binding. To be noted: with parS DNA site. The gist of the method: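 The reporter was HIS3, with the binding site 19 bp from the promoter, in E. coli USO used for bacterial one-hybrid selection of Caulobacter ParB libraries with four specificity codons randomised. Growth was on M9 lacking histidine, with 0.1 mM IPTG and 5 mM 3-AT, for 48 hours at 37°C. Illumina sequencing covered plasmids before and after selection; three replicate libraries were pooled and variants with under 10 reads dropped. A fitness score is the log change in variant-to-wild-type read ratio, rescaled to the cognate and non-cognate references.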
For the variant TTVR, the “one-hybrid fitness for binding parS DNA” value is at most 0.2. The value for PQGT was at most 0.2; that for CNIR was at most 0.2. Take PQIY: the “one-hybrid fitness for binding parS DNA” value was at most 0.2. The value for AYMC was at most 0.2; that for LDSM was at most 0.2.

Consider MMSM, for which the “one-hybrid fitness for binding parS DNA” value is at most 0.2.

For the variant CKEG, the “one-hybrid fitness for binding parS DNA” value was at most 0.2. Turning to RDLY, the “one-hybrid fitness for binding parS DNA” value was at most 0.2.

TQMA: the “one-hybrid fitness for binding parS DNA” value was at most 0.2. The value for MDRS was at most 0.2; that for GVRK was at most 0.2; that for HRAC was 0.25. The value for LVPC was at most 0.2; that for PSRA was at most 0.2; that for RPMA was at most 0.2.

For the variant SHHC, the “one-hybrid fitness for binding parS DNA” value was at most 0.2. The value for YVDS was at most 0.2; that for QNQV was at most 0.2; that for EKHG was at most 0.2. The value for KLCG was at most 0.2; that for QCEA was at most 0.2.

On to KPLK, for which the “one-hybrid fitness for binding parS DNA” value is at most 0.2. The value for VLPG was at most 0.2. The value for TRNG was at most 0.2. The value for TLII was at most 0.2; that for KNNH was at most 0.2; that for HTVS was at most 0.2. Regarding GARQ, the “one-hybrid fitness for binding parS DNA” value was at most 0.2. The value for YYMV was at most 0.2; that for VPLA was at most 0.2; that for EFSD was at most 0.2. As to RHRC, the “one-hybrid fitness for binding parS DNA” value stood at 0.879. The value for PDND was 0.211; that for WTYS was at most 0.2; that for CHVS was at most 0.2. The value for YPMT was at most 0.2; that for ACKS was at most 0.2; that for GLSC was at most 0.2. The value for REGV was at most 0.2; that for QSYI was at most 0.2; that for FQAS was at most 0.2. Take PYEY: the “one-hybrid fitness for binding parS DNA” value is at most 0.2.

Turning to LAHY, the “one-hybrid fitness for binding parS DNA” value was at most 0.2.

Take CWRN: the “one-hybrid fitness for binding parS DNA” value was at most 0.2. For HRLG, the “one-hybrid fitness for binding parS DNA” value was determined as 0.266. As for TGGD, the “one-hybrid fitness for binding parS DNA” value was at most 0.2. The value for GNTL was at most 0.2; that for GTDM was at most 0.2; that for EWLW was at most 0.2. The value for QALI was at most 0.2; that for NYFS was at most 0.2. The value for AQTG was at most 0.2. For the variant TRMC, the “one-hybrid fitness for binding parS DNA” value is at most 0.2. The value for LTDM was at most 0.2; that for GVVR was at most 0.2. The value for SDDC was at most 0.2. The value for SIAQ was at most 0.2; that for KHRD was at most 0.2. Take KRFL: the “one-hybrid fitness for binding parS DNA” value is at most 0.2.

Consider CYPL, for which the “one-hybrid fitness for binding parS DNA” value was at most 0.2. Consider HLGW, for which the “one-hybrid fitness for binding parS DNA” value was at most 0.2. Regarding PTIR, the “one-hybrid fitness for binding parS DNA” value was at most 0.2. The value for SDFG was at most 0.2; that for TPMN was at most 0.2; that for AHSM was at most 0.2. On to YHIT, for which the “one-hybrid fitness for binding parS DNA” value is at most 0.2. The value for NCRY was at most 0.2. The value for NNHR was at most 0.2.

In the case of AYST, the “one-hybrid fitness for binding parS DNA” value was at most 0.2. The value for HSQG was at most 0.2; that for LGVD was at most 0.2. As for PRLA, the “one-hybrid fitness for binding parS DNA” value was at most 0.2. The value for WERR was at most 0.2; that for ANLL was at most 0.2.

QFLM: the “one-hybrid fitness for binding parS DNA” value is at most 0.2. Turning to HRGY, the “one-hybrid fitness for binding parS DNA” value is at most 0.2. The value for FSQS was at most 0.2. The value for QPVY was at most 0.2. The value for GMSI was at most 0.2.

Consider QYDM, for which the “one-hybrid fitness for binding parS DNA” value is at most 0.2.

On to QSES, for which the “one-hybrid fitness for binding parS DNA” value is at most 0.2. Regarding IVPE, the “one-hybrid fitness for binding parS DNA” value was at most 0.2.

Consider IHIC, for which the “one-hybrid fitness for binding parS DNA” value was at most 0.2.

For the variant WHSS, the “one-hybrid fitness for binding parS DNA” value was at most 0.2. For the variant CTQI, the “one-hybrid fitness for binding parS DNA” value is at most 0.2. For KALI, the “one-hybrid fitness for binding parS DNA” value is at most 0.2. The value for SRMS was at most 0.2; that for SNVC was at most 0.2; that for WPRG was at most 0.2.

On to GTYT, for which the “one-hybrid fitness for binding parS DNA” value is at most 0.2.

As for APAD, the “one-hybrid fitness for binding parS DNA” value was at most 0.2. The value for DTAM was at most 0.2; that for IIST was at most 0.2. The value for TEQE was at most 0.2.

In the case of AKKN, the “one-hybrid fitness for binding parS DNA” value was at most 0.2. The value for YKDR was at most 0.2; that for ANSS was at most 0.2. The value for LPPD was at most 0.2; that for VLWG was at most 0.2; that for LIPG was at most 0.2. The value for VICS was at most 0.2. In the case of TIMA, the “one-hybrid fitness for binding parS DNA” value is at most 0.2. For IDNR, the “one-hybrid fitness for binding parS DNA” value was at most 0.2.

Consider RLLP, for which the “one-hybrid fitness for binding parS DNA” value is at most 0.2. Turning to HLAC, the “one-hybrid fitness for binding parS DNA” value was at most 0.2. The value for GWIY was at most 0.2; that for KIDM was at most 0.2; that for EATL was at most 0.2.

Regarding TTTA, the “one-hybrid fitness for binding parS DNA” value was at most 0.2. The value for FNAR was at most 0.2; that for NVYT was at most 0.2.

Consider RYWW, for which the “one-hybrid fitness for binding parS DNA” value is at most 0.2. The value for MIIL was at most 0.2. As to SDGC, the “one-hybrid fitness for binding parS DNA” value was at most 0.2. The value for QFDT was at most 0.2. The value for RVGI was at most 0.2.

For the variant IMMD, the “one-hybrid fitness for binding parS DNA” value was at most 0.2. With RMHN, the “one-hybrid fitness for binding parS DNA” value worked out at 0.482. On to RTKQ, for which the “one-hybrid fitness for binding parS DNA” value was at most 0.2.

As to VQAG, the “one-hybrid fitness for binding parS DNA” value was at most 0.2.

Regarding YIIR, the “one-hybrid fitness for binding parS DNA” value is at most 0.2. As to QQRI, the “one-hybrid fitness for binding parS DNA” value was at most 0.2. The value for VMFK was at most 0.2.

Regarding TYQN, the “one-hybrid fitness for binding parS DNA” value is at most 0.2. The value for GLET was at most 0.2; that for QTDP was at most 0.2; that for PRSF was at most 0.2. The value for SSER was at most 0.2; that for MHVG was at most 0.2. The value for LHGF was at most 0.2; that for PDSS was at most 0.2; that for WSPE was at most 0.2. As for HPMT, the “one-hybrid fitness for binding parS DNA” value was at most 0.2.

Regarding RPEL, the “one-hybrid fitness for binding parS DNA” value was at most 0.2.

LAVG: the “one-hybrid fitness for binding parS DNA” value was at most 0.2. As for VTTA, the “one-hybrid fitness for binding parS DNA” value is at most 0.2. Regarding LVWE, the “one-hybrid fitness for binding parS DNA” value was at most 0.2.

Turning to FSFL, the “one-hybrid fitness for binding parS DNA” value was found to be 0.297. The value for VIPA was at most 0.2. The value for KNAP was at most 0.2.

In the case of YQKS, the “one-hybrid fitness for binding parS DNA” value is at most 0.2. With GSYF, the “one-hybrid fitness for binding parS DNA” value is at most 0.2. For the variant PKAF, the “one-hybrid fitness for binding parS DNA” value was at most 0.2. The value for YPPA was at most 0.2. The value for IDRT was at most 0.2; that for ASEH was at most 0.2. The value for QNRS was at most 0.2; that for GYTF was at most 0.2; that for DKAC was at most 0.2. Take LMWC: the “one-hybrid fitness for binding parS DNA” value was at most 0.2. The value for TTSD was at most 0.2; that for RNHR was at most 0.2.

These data come from a collection of fitness landscapes (doi:10.1016/j.celrep.2020.107928).
